Results reported in the supplement of paper PMC4723716.
± gives the uncertainty stated by the source. Whole data set: some 9,900 compounds, median “viability index relative to DMSO control” near 1, cut for the lowest 2% near 0.85. The list shows a part of the results.

System: Plasmodium falciparum NF54 stage V gametocytes
Assay: viability index relative to DMSO control (fraction); higher = less gametocyte killing
Details: 2.5 µM, library set: Broad Institute DOS, incubation time: 72 h
Summary of the method: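 Compound at 2.5 µM was incubated for 72 hr at 37°C under low oxygen with P. falciparum NF54 stage V gametocytes (0.75% gametocytemia, 1.25% hematocrit, 10 µl, serum-free screening medium) in 1,536-well plates. Staining used 3 µl of 2.5 µM MitoTracker Red CMXRos plus 0.13% saponin for one to two hours, and red particles of 20–70 µm2 were counted in one imaged field per well. Each viability index is that count relative to the plate mean of solvent-only wells.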

Going from COc1ccc2c3c([nH]c2c1)[C@H](CO)N(Cc1ccc(Cl)cc1)C[C@]31CCN(Cc2nccs2)CC1 to COc1ccc2c3c([nH]c2c1)[C@@H](CO)N(C[C@]31CCN(CC1)S(=O)(=O)c1cccs1)C(=O)c1ccc(F)cc1, the viability index rises from 0.884 ± 0.047 to 1.054 ± 0.0085.

C[C@@H](O)C#Cc1ccc([C@@H]2[C@H]3CN(CC4CC4)CCCCN3[C@H]2CO)cc1 and C[C@H](O)C#Cc1ccc([C@H]2[C@@H](CO)N3CCCCN(C(=O)c4ccc5c(c4)OCO5)C[C@@H]23)cc1 are within error of each other in viability index: 1.04 ± 0.053 for the first, 1.056 ± 0.0023 for the second.

COc1ccc2c3c([C@@H](CO)N(C[C@]33CN(C3)C(C)=O)C(=O)c3ccncc3)n(C)c2c1 and CCCNC(=O)N1C[C@]2(CCN(Cc3cccc(OC)c3)CC2)c2c([C@H]1CO)n(C)c1cc(OC)ccc21 are within error of each other in viability index: 1.03 ± 0.11 for the first, 0.9943 ± 0.0058 for the second.

COc1ccc2c3c([nH]c2c1)[C@H](CO)N(C[C@]31CN(Cc2ccc(F)cc2)C1)C(=O)NC(C)C and COc1ccc2c3c([nH]c2c1)[C@@H](CO)N(Cc1ccccc1)C[C@]31CN(C1)C(=O)Nc1cccc(F)c1 are within error of each other in viability index: 0.962 ± 0.069 for the first, 1.011 ± 0.0031 for the second.

CC(C)C(=O)Nc1ccc2c(c1)C(=O)N(C)[C@@H]1CC[C@@H](CC(=O)NCCc3ccccc3)O[C@@H]1CO2 and CC(C)NC(=O)Nc1ccc2c(c1)C(=O)N(C)[C@H]1CC[C@H](CC(=O)NCc3ccc(F)cc3)O[C@@H]1CO2 are within error of each other in viability index: 1.12 ± 0.18 for the first, 1 ± 0.024 for the second.

First: C[C@@H]1CN([C@@H](C)CO)C(=O)c2c(c3ccccc3n2C)-c2ccccc2CO[C@H]1CN(C)C(=O)[C@H]1CCCN1C
Second: Cc1noc(C)c1S(=O)(=O)N(C)C[C@H]1OCc2ccccc2-c2c(n(C)c3ccccc23)C(=O)N([C@H](C)CO)C[C@H]1C
The viability index of the first is higher: 1.08 ± 0.011 for the first, 0.948 ± 0.025 for the second.

First: C[C@@H]1CN([C@@H](C)CO)C(=O)Cc2cc(NS(=O)(=O)c3ccc(F)cc3)ccc2O[C@@H]1CN(C)Cc1ccncc1
Second: C[C@@H]1CN([C@@H](C)CO)C(=O)c2cccc(NS(C)(=O)=O)c2O[C@@H]1CN(C)Cc1ccc(-c2ccccc2)cc1
The viability index of the first is lower: 0.975 ± 0.051 for the first, 1.04 ± 0.011 for the second.

CO[C@@H]1CC[C@@H]2CCOc3c(C#N)cccc3C(=O)N(C)C[C@H](c3ccccc3)CC(=O)N(C)C[C@H]1O2 and CO[C@@H]1CC[C@H]2CCOc3ccc(C#N)cc3C(=O)N(C)[C@@H](C)C(=O)N(C)C[C@H]1O2 are within error of each other in viability index: 0.992 ± 0.075 for the first, 1.08 ± 0.071 for the second.

O=C(C[C@@H]1C=C[C@H](NC(=O)CCN2CCCCC2)[C@@H](CO)O1)Nc1nccs1 and O=C(C[C@H]1CC[C@@H]2NC[C@H](O)COC[C@H]2O1)NCCN1CCCCC1 are within error of each other in viability index: 0.982 ± 0.15 for the first, 0.97 ± 0.086 for the second.

C[C@@H]1CCCCO[C@@H](CN(C)Cc2ccc(Cl)c(Cl)c2)[C@H](C)CN([C@@H](C)CO)C(=O)c2cc(NS(=O)(=O)c3cccs3)ccc2O1 and C[C@H](CO)N1C[C@H](C)[C@H](CN(C)S(=O)(=O)c2cccs2)Oc2ccc(NC(=O)CCCCCC(=O)Nc3ccccc3N)cc2CC1=O are within error of each other in viability index: 1.02 ± 0.073 for the first, 0.959 ± 0.048 for the second.

C[C@@H]1CN([C@@H](C)CO)C(=O)Cc2cc(NC(=O)C3CC3)ccc2O[C@@H]1CN(C)S(=O)(=O)c1cn(C)cn1 and C[C@H]1CN([C@@H](C)CO)C(=O)CCCn2nncc2CO[C@@H]1CN(C)C(=O)Nc1ccc2c(c1)OCCO2 are within error of each other in viability index: 0.967 ± 0.047 for the first, 1.03 ± 0.028 for the second.

CN1C(=O)c2cc(NS(=O)(=O)c3ccccc3F)ccc2OC[C@H]2O[C@@H](CC(=O)NC3Cc4ccccc4C3)CC[C@@H]21 and COc1cccc(NC(=O)C[C@@H]2CC[C@H]3[C@@H](COc4ccc(NS(=O)(=O)c5cccc(F)c5)cc4C(=O)N3C)O2)c1 are within error of each other in viability index: 0.979 ± 0.096 for the first, 1.08 ± 0.049 for the second.

O=C(c1cccnc1)N1CC2(C1)[C@@H](c1ccccc1)[C@@H](CO)N2Cc1ccc(Cl)cc1 and N#C[C@H]1[C@@H](c2ccc(C#Cc3ccccc3F)cc2)[C@H](CO)N1C(=O)c1cccnc1 are within error of each other in viability index: 1.11 ± 0.029 for the first, 1.1 ± 0.082 for the second.

CC(=O)N1[C@@H]2c3ccc(-c4cccnc4)c(=O)n3C[C@H]1[C@H](CO)[C@H]2C(=O)NC1Cc2ccccc2C1 and O=C(Cc1cccnc1)N1[C@@H](CO)[C@@H](c2ccccc2)[C@@H]1CNCC1CCC1 are within error of each other in viability index: 1.07 ± 0.075 for the first, 1.03 ± 0.033 for the second.

Going from CO[C@H]1CN(C)C(=O)c2ccc(NS(=O)(=O)c3c(C)noc3C)cc2OC[C@@H](C)NC[C@@H]1C to CCCN1C[C@H](C)[C@H](OC)CN(C)C(=O)c2ccc(NS(=O)(=O)c3cn(C)cn3)cc2OC[C@H]1C, the viability index falls from 1.06 ± 0.02 to 0.9716 ± 0.006.

O=C(C[C@@H]1CC[C@H]2[C@@H](COC[C@H](O)CN2C(=O)c2ccc(F)cc2)O1)N1CCCCC1 and O=C(C[C@@H]1CC[C@H]2[C@@H](COC[C@H](O)CN2Cc2ccc3c(c2)OCO3)O1)N1CCCCC1 are within error of each other in viability index: 1.08 ± 0.055 for the first, 0.994 ± 0.096 for the second.

CO[C@@H]1CN(C)C(=O)c2cc(NC(=O)Nc3cccc(Cl)c3)ccc2OC[C@H](C)N(C(=O)Nc2c(C)noc2C)C[C@@H]1C and COCC(=O)N1C[C@@H](C)[C@H](OC)CN(C)C(=O)c2ccc(NC(=O)Nc3cccc(F)c3)cc2OC[C@@H]1C are within error of each other in viability index: 1.08 ± 0.063 for the first, 1.032 ± 0.0043 for the second.

Compared with CCCN1C[C@@H](C)[C@@H](OC)CN(C)C(=O)c2cc(NC(=O)Nc3cccc(F)c3)ccc2OC[C@H]1C, CO[C@H]1CN(C)C(=O)c2cc(NC(=O)c3cccc(F)c3)ccc2OC[C@H](C)N(C)C[C@@H]1C is higher in viability index: 1.04 ± 0.039 for the first, 1.12 ± 0.038 for the second.

First: CN1CCCCN2[C@@H](CO)[C@H](c3ccc(-c4ccc(F)cc4)cc3)[C@@H]2C1
Second: CCNC[C@@H]1[C@@H](c2ccc(-c3ccc(F)cc3)cc2)[C@@H](CO)N1C(=O)C1CC1
The viability index of the first is higher: 0.9696 ± 0.0088 for the first, 0.921 ± 0.038 for the second.

Compared with C/C=C/c1ccc2n(c1=O)C[C@H]1[C@H](CO)[C@@H](C(=O)NCC3CC3)[C@@H]2N1C(=O)Nc1cc(F)ccc1F.C/C=C\c1ccc2n(c1=O)C[C@H]1[C@H](CO)[C@@H](C(=O)NCC3CC3)[C@@H]2N1C(=O)Nc1cc(F)ccc1F, CN(C)C(=O)c1cccc(-c2ccc([C@H]3[C@@H](CO)N4C(=O)CN(C(=O)C5CCC5)C[C@@H]34)cc2)c1 is higher in viability index: 1.074 ± 0.0083 for the first, 1.123 ± 0.0072 for the second.

CO[C@H]1CN(C)C(=O)c2ccc(NC(=O)c3ccccc3F)cc2OC[C@H](C)N(C)C[C@H]1C and CCCNC(=O)Nc1ccc2c(c1)C(=O)N(C)C[C@@H](OC)[C@H](C)CN(C)[C@H](C)CO2 are within error of each other in viability index: 1.07 ± 0.08 for the first, 1.115 ± 0.0071 for the second.

CO[C@H]1CN(C)C(=O)c2ccc(NC(=O)Nc3c(C)noc3C)cc2OC[C@H](C)N(CCC(F)(F)F)C[C@@H]1C and CCCNC(=O)Nc1ccc2c(c1)OC[C@@H](C)N(C(=O)C1CCOCC1)C[C@H](C)[C@@H](OC)CN(C)C2=O are within error of each other in viability index: 0.972 ± 0.084 for the first, 1.06 ± 0.011 for the second.

First: N#C[C@@H]1[C@H](c2ccccc2C2=CCCC2)[C@H](CO)N1C(=O)Cc1ccncc1
Second: CCCNC(=O)N1[C@H](C#N)[C@@H](c2ccc(-c3ccccc3F)cc2)[C@H]1CO
The viability index of the first is higher: 1.15 ± 0.038 for the first, 0.974 ± 0.074 for the second.

COc1ccc(NC(=O)N2CCCCN3[C@H](CO)[C@@H](c4ccc(-c5ccccc5F)cc4)[C@H]3C2)cc1 and CC(C)CC#Cc1ccc([C@@H]2[C@@H](CO)N3CCCCN(C(=O)Nc4ccccc4)C[C@@H]23)cc1 are within error of each other in viability index: 0.9749 ± 0.0037 for the first, 1 ± 0.15 for the second.

C/C=C/c1ccc([C@H]2[C@@H](CO)N(C(=O)c3ccccc3)C23CN(C(C)=O)C3)cc1 and C/C=C/c1ccc([C@H]2[C@H](CO)N(C(=O)CN(C)C)C23CN(C(=O)C2CCOCC2)C3)cc1 are within error of each other in viability index: 1.08 ± 0.074 for the first, 1.05 ± 0.059 for the second.

C[C@H](CO)N1C[C@H](C)[C@H](CN(C)S(=O)(=O)c2ccccc2F)Oc2ncc(/C=C/c3ccccc3)cc2C1=O and COc1ccc(NC(=O)N(C)C[C@H]2Oc3c(NS(=O)(=O)c4c(C)noc4C)cccc3C(=O)N([C@H](C)CO)C[C@H]2C)cc1 are within error of each other in viability index: 0.929 ± 0.11 for the first, 0.934 ± 0.036 for the second.

CN(C)C(=O)C[C@@H]1CC[C@H]2[C@@H](COC[C@@H](O)CN2C(=O)C2CCOCC2)O1 and CN(C)CCCNC(=O)C[C@H]1CC[C@@H]2[C@H](COC[C@@H](O)CN2Cc2cccc(C(F)(F)F)c2)O1 are within error of each other in viability index: 1.1 ± 0.016 for the first, 1.09 ± 0.019 for the second.

Cc1ccc(NC(=O)Nc2ccc3c(c2)C(=O)N(C)[C@@H]2CC[C@@H](CC(=O)NCC(F)(F)F)O[C@@H]2CO3)cc1 and CN1C(=O)c2cc(NC(=O)Nc3ccccc3Cl)ccc2OC[C@H]2O[C@H](CC(=O)NCCCN3CCOCC3)CC[C@@H]21 are within error of each other in viability index: 0.998 ± 0.19 for the first, 1.15 ± 0.14 for the second.

CCS(=O)(=O)NCC[C@@H]1CC[C@@H](NC(=O)Nc2cc(Cl)cc(Cl)c2)[C@H](CO)O1 and O=C(C[C@H]1C[C@@H]2c3cc(NS(=O)(=O)c4ccccc4)ccc3O[C@@H]2[C@@H](CO)O1)NCC(F)(F)F are within error of each other in viability index: 1.09 ± 0.04 for the first, 1.1 ± 0.011 for the second.

Going from N#Cc1ccc(-c2ccc3c(c2)[C@H]2[C@H](CCN2C(=O)c2cccnc2)[C@@H](CO)N3)cc1 to O=C(CC1CC1)N1CC(=O)N2[C@H](C1)[C@H](c1ccc(C#Cc3cccc(F)c3)cc1)[C@@H]2CO, the viability index falls from 1.15 ± 0.077 to 0.974 ± 0.063.

C[C@H]1CN([C@@H](C)CO)C(=O)CCCn2nncc2CO[C@H]1CN(C)C(=O)CCC(F)(F)F and C[C@@H]1CN([C@H](C)CO)C(=O)CCCn2nncc2CO[C@@H]1CN(C)C(=O)Nc1ccnc(N2CCOCC2)c1 are within error of each other in viability index: 1.089 ± 0.0015 for the first, 1.04 ± 0.051 for the second.

Going from C[C@@H]1CN([C@@H](C)CO)C(=O)c2cccc(NC(=O)c3ccc(-c4nccs4)cc3)c2O[C@H]1CN(C)C(=O)Nc1ccc(C(F)(F)F)cc1 to CO[C@@H](CN(C)Cc1nccs1)[C@@H](C)CN([C@H](C)CO)S(=O)(=O)c1ccc(F)cc1, the viability index rises from 1.011 ± 0.0069 to 1.07 ± 0.043.

CC[C@@H]1C/C=C\C[C@H](c2ccc(OC)cc2OC)NC(=O)[C@@H](C)CC(=O)N1 and COc1ccc2c3c([nH]c2c1)[C@H](CO)N(C[C@]31CN(CC2CCOCC2)C1)S(C)(=O)=O are within error of each other in viability index: 1.02 ± 0.039 for the first, 1.01 ± 0.08 for the second.

O=C(C[C@@H]1CC[C@@H]2[C@H](COC[C@H](O)CN2Cc2nccs2)O1)NCc1ccccc1Cl and CC(C)[C@H]1C/C=C/C[C@H](C)Oc2ccccc2C(=O)N(C)[C@H](C(C)C)C(=O)N1.CC(C)[C@H]1C/C=C\C[C@H](C)Oc2ccccc2C(=O)N(C)[C@H](C(C)C)C(=O)N1 are within error of each other in viability index: 1.05 ± 0.048 for the first, 0.998 ± 0.014 for the second.
